The other results are listed elsewhere or left out.

The test system of the experiment is PfSIP2 AP2 domain 1 (GST-tagged). In words: gcPBM binding intensity (ln(normalized median fluorescence intensity)); higher = stronger DNA binding. In outline: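 Probes on an Agilent 4 × 180k array were primer-extended, double-stranded and 36 bp long, taken from intergenic genomic regions, with negative controls added. GST-tagged P. falciparum DNA-binding domains from E. coli, about 25 μg on average, were applied to the array for 1 h in 1× PBS containing 1% milk, 0.2 mg/ml BSA, 0.5% salmon testes DNA and 0.03% Triton X-100. Binding intensity, obtained after Alexa488 anti-GST antibody detection and a 488 nm scan, is the highest Masliner-normalised natural-log median intensity across replicate spots of either probe orientation.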
With “AAAAAAAAAAGAATAGCACACACACCGATATAAATA [CACACA_site8111]”, the “gcPBM binding intensity (ln)” value was 6.79.

Take “TAGGTATGCTCTCAATGTACATAAAATAATTTTACT [XGTACX_site6556]”: the “gcPBM binding intensity (ln)” value stood at 7.02.

“ATAAATATTAAAAGTACACACAGATACACTAATTAT [CACACA_site1808]”: the “gcPBM binding intensity (ln)” value stood at 7.2.

Take “TGAGTACACAATAATACATGCAATTCCTATGAATAT [TGCATGCA_site851]”: the “gcPBM binding intensity (ln)” value was found to be 6.99.

On to “ATATGACATAAAACATGTACATGTTCATAAATATAT [XGTACX_site1923]”, for which the “gcPBM binding intensity (ln)” value was found to be 7.07.

Turning to “ATTTACATAATAAAATGTACATTTATAAATATTATA [XGTACX_site1901]”, the “gcPBM binding intensity (ln)” value came out at 7.11.

Consider “TACACTTTTTATGAAGTGCATGTATAGCTCTTAAAA [GTGCAC_site9595]”, for which the “gcPBM binding intensity (ln)” value came out at 7.9.

Take CATTATTCATTTTGGATGCACTGACAGAAAAATGGT: the “gcPBM binding intensity (ln)” value came to 9.22.

For the sequence “ATGCTCAGGAAAACATGTACAAAATTATTTGTTATA [XGTACX_site4306]”, the “gcPBM binding intensity (ln)” value was found to be 6.9.

In the case of “AGTTTTTATAAAAATAGTACATATTTATTAATCTGT [XGTACX_site5881]”, the “gcPBM binding intensity (ln)” value stood at 6.89.

Take “TTTTGTGCTTAAAAAAGTACAAAATATAAAAAAAAT [XGTACX_site7876]”: the “gcPBM binding intensity (ln)” value was found to be 7.18.

As to “TGCAGTCTGGAGAAACGTACACAGTATCTGGTAACC [XGTACX_site2543]”, the “gcPBM binding intensity (ln)” value came out at 6.94.

“CCCACAGACGGACACACACACACACCGACACATATA [CACACA_site4356]”: the “gcPBM binding intensity (ln)” value was determined as 7.51.

“AAAATTGAACCTGACAAGGTATTTTATTATTTATTA [TGCATGCA_negctrl_site181]”: the “gcPBM binding intensity (ln)” value came to 6.48.

For “TTCTATTTTAATATCTGTACATAATAAAGATCCATT [XGTACX_site1142]”, the “gcPBM binding intensity (ln)” value was 7.17.

As to “CATATATAAAAAAACACACACATATATATATATATA [CACACA_site1195]”, the “gcPBM binding intensity (ln)” value came out at 9.11.

In the case of “ACATAAATATAAACGTGTACATATATAAATATATAT [XGTACX_site7293]”, the “gcPBM binding intensity (ln)” value amounted to 7.26.

Regarding “ATTTTTTTTTTTTATAGTGGATCCACATTTGCCATT [CACACA_negctrl_site1284]”, the “gcPBM binding intensity (ln)” value worked out at 6.79.

Regarding “ATATATTTTAATTGTTGTACATATTAAATAAATAGG [XGTACX_site2311]”, the “gcPBM binding intensity (ln)” value worked out at 7.14.

Turning to TATATTTTATATATGGTGCAACTTTTATTTAAATAA, the “gcPBM binding intensity (ln)” value was 10.6.

On to “TTACAAGTAAAAGGTACACACATTATAAATACAAAT [CACACA_site4752]”, for which the “gcPBM binding intensity (ln)” value was 7.15.

Regarding “AAAATTAAACTCACACCACACACAAAAAAAAAAAAA [CACACA_site8131]”, the “gcPBM binding intensity (ln)” value amounted to 6.91.

As to “AAGAAAGACATTACGTGTACCAAACAACCTACCAAC [XGTACX_site4219]”, the “gcPBM binding intensity (ln)” value was 7.07.

On to “ATGTATATGTCTATATGTACTTATATTTTATTTTTT [XGTACX_site5902]”, for which the “gcPBM binding intensity (ln)” value turned out to be 6.95.

Take “TGTTTTATCTTATATGCACACGATAAAAAAAAAAAA [CACACA_site2674]”: the “gcPBM binding intensity (ln)” value was 8.21.

The values are drawn from the supplement of paper PMC11417369.
